Assay results published in the supplement of paper PMC11246515.
± gives the standard deviation of the averaged measurements.

Test: total protein half-life in vivo (active degradation + dilution); higher = more stable protein
Conditions: growth: N-lim chemostat, doubling time 6 h

In the case of “MAQAEVLNLESGAKQVLQETFGYQQFRPGQEEIIDTVLSGRDCLVVMPTGGGKSLCYQIPALLLNGLTVVVSPLISLMKDQVDQLQANGVAAACLNSTQTREQQLEVMTGCRTGQIRLLYIAPERLMLDNFLEHLAHWNPVLLAVDEAHCISQWGHDFRPEYAALGQLRQRFPTLPFMALTATADDTTRQDIVRLLGLNDPLIQISSFDRPNIRYMLMEKFKPLDQLMRYVQEQRGKSGIIYCNSRAKVEDTAARLQSKGISAAAYHAGLENNVRADVQEKFQRDDLQIVVATVAFGMGINKPNVRFVVHFDIPRNIESYYQETGRAGRDGLPAEAMLFYDPADMAWLRRCLEEKPQGQLQDIERHKLNAMGAFAEAQTCRRLVLLNYFGEGRQEPCGNCDICLDPPKQYDGSTDAQIALSTIGRVNQRFGMGYVVEVIRGANNQRIRDYGHDKLKVYGMGRDKSHEHWVSVIRQLIHLGLVTQNIAQHSALQLTEAARPVLRGESSLQLAVPRIVALKPKAMQKSFGGNYDRKLFAKLRKLRKSIADESNVPPYVVFNDATLIEMAEQMPITASEMLSVNGVGMRKLERFGKPFMALIRAHVDGDDEE”, the “total protein half-life in vivo” value (E. coli NCM3722 delta-clpP delta-lon delta-hslV) is reported as 5.76 ± 0.82 h and the “total protein half-life in vivo” value (E. coli NCM3722 delta-clpP) is reported as 4.87 ± 0.2 h.
